Where a chain is given by its changes, count along the chain named. This is one part of the list.
T1: RBFOX1 RRM RbFoxmut (Fox-RRM*) (Homo sapiens, UniProt Q9NWB1 109-208, R118D;E147R;N151S;E152T)
T1 sequence: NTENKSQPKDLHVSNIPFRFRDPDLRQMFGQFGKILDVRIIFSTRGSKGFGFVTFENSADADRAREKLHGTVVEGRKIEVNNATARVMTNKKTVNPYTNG

B1: CCAAGCA (DNA:RNA)
RNA: GGGAGACCGGAAUUCAGAUUGUCCCCAAGCAUUAAAUCCCGUCGUAGCCACCA
DNA 1: CAATCTGAATTCCGGTCTCCC
DNA 2: TGGTGGCTACGACGGGATT
B2: UAAUUUG (DNA:RNA)
RNA: B1 RNA with C25U, C26A, A28U, G29U, C30U, A31G
DNA 1: CAATCTGAATTCCGGTCTCCC
DNA 2: TGGTGGCTACGACGGGATT
B3: AGGUAUG (DNA:RNA)
RNA: GGGAGACCGGAAUUCAGAUUGUCCAGGUAUGUUAAAUCCCGUCGUAGCCACCA
DNA 1: CAATCTGAATTCCGGTCTCCC
DNA 2: TGGTGGCTACGACGGGATT
B4: UAAAAGG (DNA:RNA)
RNA: B3 RNA with A25U, G26A, G27A, U28A, U30G
DNA 1: CAATCTGAATTCCGGTCTCCC
DNA 2: TGGTGGCTACGACGGGATT
B5: AGCCACA (DNA:RNA)
RNA: B3 RNA with G27C, U28C, U30C, G31A
DNA 1: CAATCTGAATTCCGGTCTCCC
DNA 2: TGGTGGCTACGACGGGATT
B6: UUUGGUG (DNA:RNA)
RNA: B3 RNA with A25U, G26U, G27U, U28G, A29G
DNA 1: CAATCTGAATTCCGGTCTCCC
DNA 2: TGGTGGCTACGACGGGATT
B7: GUCAAGG (DNA:RNA)
RNA: B3 RNA with A25G, G26U, G27C, U28A, U30G
DNA 1: CAATCTGAATTCCGGTCTCCC
DNA 2: TGGTGGCTACGACGGGATT
B8: AAACAUG (DNA:RNA)
RNA: B3 RNA with G26A, G27A, U28C
DNA 1: CAATCTGAATTCCGGTCTCCC
DNA 2: TGGTGGCTACGACGGGATT
B9: CAAUUCC (DNA:RNA)
RNA: B1 RNA with C26A, A28U, G29U, A31C
DNA 1: CAATCTGAATTCCGGTCTCCC
DNA 2: TGGTGGCTACGACGGGATT
B10: GUCAGAC (DNA:RNA)
RNA: B1 RNA with C25G, C26U, A27C, C30A, A31C
DNA 1: CAATCTGAATTCCGGTCTCCC
DNA 2: TGGTGGCTACGACGGGATT
B11: UCUUUUG (DNA:RNA)
RNA: B3 RNA with A25U, G26C, G27U, A29U
DNA 1: CAATCTGAATTCCGGTCTCCC
DNA 2: TGGTGGCTACGACGGGATT
B12: CGAUCCG (DNA:RNA)
RNA: B3 RNA with A25C, G27A, A29C, U30C
DNA 1: CAATCTGAATTCCGGTCTCCC
DNA 2: TGGTGGCTACGACGGGATT
B13: GACUAUU (DNA:RNA)
RNA: B3 RNA with A25G, G26A, G27C, G31U
DNA 1: CAATCTGAATTCCGGTCTCCC
DNA 2: TGGTGGCTACGACGGGATT
B14: UCGGUUU (DNA:RNA)
RNA: B3 RNA with A25U, G26C, U28G, A29U, G31U
DNA 1: CAATCTGAATTCCGGTCTCCC
DNA 2: TGGTGGCTACGACGGGATT
B15: ACAAUGG (DNA:RNA)
RNA: B1 RNA with C25A, G29U, C30G, A31G
DNA 1: CAATCTGAATTCCGGTCTCCC
DNA 2: TGGTGGCTACGACGGGATT
B16: GUCCGCG (DNA:RNA)
RNA: B1 RNA with C25G, C26U, A27C, A28C, A31G
DNA 1: CAATCTGAATTCCGGTCTCCC
DNA 2: TGGTGGCTACGACGGGATT
B17: AGCCUGU (DNA:RNA)
RNA: B3 RNA with G27C, U28C, A29U, U30G, G31U
DNA 1: CAATCTGAATTCCGGTCTCCC
DNA 2: TGGTGGCTACGACGGGATT
B18: UGAAUCC (DNA:RNA)
RNA: B1 RNA with C25U, C26G, G29U, A31C
DNA 1: CAATCTGAATTCCGGTCTCCC
DNA 2: TGGTGGCTACGACGGGATT
B19: AUCCACC (DNA:RNA)
RNA: B3 RNA with G26U, G27C, U28C, U30C, G31C
DNA 1: CAATCTGAATTCCGGTCTCCC
DNA 2: TGGTGGCTACGACGGGATT
B20: UCGCACG (DNA:RNA)
RNA: B3 RNA with A25U, G26C, U28C, U30C
DNA 1: CAATCTGAATTCCGGTCTCCC
DNA 2: TGGTGGCTACGACGGGATT
B21: CUCAAUU (DNA:RNA)
RNA: B3 RNA with A25C, G26U, G27C, U28A, G31U
DNA 1: CAATCTGAATTCCGGTCTCCC
DNA 2: TGGTGGCTACGACGGGATT
B22: CAUUAAA (DNA:RNA)
RNA: B3 RNA with A25C, G26A, G27U, U30A, G31A
DNA 1: CAATCTGAATTCCGGTCTCCC
DNA 2: TGGTGGCTACGACGGGATT
B23: GUUGUUA (DNA:RNA)
RNA: B3 RNA with A25G, G26U, G27U, U28G, A29U, G31A
DNA 1: CAATCTGAATTCCGGTCTCCC
DNA 2: TGGTGGCTACGACGGGATT
B24: AGCGCAA (DNA:RNA)
RNA: B3 RNA with G27C, U28G, A29C, U30A, G31A
DNA 1: CAATCTGAATTCCGGTCTCCC
DNA 2: TGGTGGCTACGACGGGATT
B25: GGUGAGA (DNA:RNA)
RNA: B3 RNA with A25G, G27U, U28G, U30G, G31A
DNA 1: CAATCTGAATTCCGGTCTCCC
DNA 2: TGGTGGCTACGACGGGATT
B26: CGAUCGG (DNA:RNA)
RNA: B3 RNA with A25C, G27A, A29C, U30G
DNA 1: CAATCTGAATTCCGGTCTCCC
DNA 2: TGGTGGCTACGACGGGATT
B27: UUCAGGC (DNA:RNA)
RNA: B1 RNA with C25U, C26U, A27C, C30G, A31C
DNA 1: CAATCTGAATTCCGGTCTCCC
DNA 2: TGGTGGCTACGACGGGATT
B28: CCUGUGC (DNA:RNA)
RNA: B1 RNA with A27U, A28G, G29U, C30G, A31C
DNA 1: CAATCTGAATTCCGGTCTCCC
DNA 2: TGGTGGCTACGACGGGATT
B29: GAGGCGG (DNA:RNA)
RNA: B3 RNA with A25G, G26A, U28G, A29C, U30G
DNA 1: CAATCTGAATTCCGGTCTCCC
DNA 2: TGGTGGCTACGACGGGATT
B30: GCGUUAC (DNA:RNA)
RNA: B3 RNA with A25G, G26C, A29U, U30A, G31C
DNA 1: CAATCTGAATTCCGGTCTCCC
DNA 2: TGGTGGCTACGACGGGATT
B31: UGUUUGA (DNA:RNA)
RNA: B3 RNA with A25U, G27U, A29U, U30G, G31A
DNA 1: CAATCTGAATTCCGGTCTCCC
DNA 2: TGGTGGCTACGACGGGATT

target: T1, RBFOX1 RRM RbFoxmut (Fox-RRM*); assay: EMSA; HiTS-Eq, 1 nM pool, 10 min; buffer printed only for the single-RNA assays: 10 mM Tris pH 7.5, 150 mM NaCl, 3.4 mM EDTA, 0.001% NP-40, 30 C; conditions: tags: His6 N-terminal (pET28a); label: 5' 32P
How it was run: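 Purified wild-type or mutant RbFox RRM at increasing concentrations was equilibrated with 1 nM of 5′-radiolabelled RNA carrying 7 randomized nucleotides for 10 min in 50 µL. Unbound RNA was separated by 8% native PAGE and sequenced. Relative association constants came from read-count changes of each RNA species compared with the control reaction, normalised to the cognate motif.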

Binder | binding signal
B1 | 0.113 KA relative to UGCAUGU
B2 | 0.0593 KA relative to UGCAUGU
B3 | 1.01 KA relative to UGCAUGU
B4 | 0.07 KA relative to UGCAUGU
B5 | 0.0933 KA relative to UGCAUGU
B6 | 0.136 KA relative to UGCAUGU
B7 | 0.0815 KA relative to UGCAUGU
B8 | 0.0957 KA relative to UGCAUGU
B9 | 0.0801 KA relative to UGCAUGU
B10 | 0.0721 KA relative to UGCAUGU
B11 | 0.118 KA relative to UGCAUGU
B12 | 0.0617 KA relative to UGCAUGU
B13 | 0.0993 KA relative to UGCAUGU
B14 | 0.0927 KA relative to UGCAUGU
B15 | 0.0841 KA relative to UGCAUGU
B16 | 0.0851 KA relative to UGCAUGU

Binder | binding signal
B17 | 0.118 KA relative to UGCAUGU
B18 | 0.172 KA relative to UGCAUGU
B19 | 0.0787 KA relative to UGCAUGU
B20 | 0.272 KA relative to UGCAUGU
B21 | 0.0583 KA relative to UGCAUGU
B22 | 0.134 KA relative to UGCAUGU
B23 | 0.153 KA relative to UGCAUGU
B24 | 0.0674 KA relative to UGCAUGU
B25 | 0.084 KA relative to UGCAUGU
B26 | 0.102 KA relative to UGCAUGU
B27 | 0.0937 KA relative to UGCAUGU
B28 | 0.135 KA relative to UGCAUGU
B29 | 0.083 KA relative to UGCAUGU
B30 | 0.0831 KA relative to UGCAUGU
B31 | 0.319 KA relative to UGCAUGU
